The full ranking holds about 33,000 sequences; the median of “E-score (-0.5 to 0.5)” is about -0.016, and the highest 2% start at about 0.32. The list shows a part of the results.
target: T1, Stp1 (UniProt B3LFK1); test: PBM E-score (8-mer binding enrichment) (E-score (-0.5 to 0.5)); higher = stronger / more preferred TF binding; most listed sequences are background and not binding sites; conditions: protein concentration: 200 nM; construct: GST-full length
T1 sequence: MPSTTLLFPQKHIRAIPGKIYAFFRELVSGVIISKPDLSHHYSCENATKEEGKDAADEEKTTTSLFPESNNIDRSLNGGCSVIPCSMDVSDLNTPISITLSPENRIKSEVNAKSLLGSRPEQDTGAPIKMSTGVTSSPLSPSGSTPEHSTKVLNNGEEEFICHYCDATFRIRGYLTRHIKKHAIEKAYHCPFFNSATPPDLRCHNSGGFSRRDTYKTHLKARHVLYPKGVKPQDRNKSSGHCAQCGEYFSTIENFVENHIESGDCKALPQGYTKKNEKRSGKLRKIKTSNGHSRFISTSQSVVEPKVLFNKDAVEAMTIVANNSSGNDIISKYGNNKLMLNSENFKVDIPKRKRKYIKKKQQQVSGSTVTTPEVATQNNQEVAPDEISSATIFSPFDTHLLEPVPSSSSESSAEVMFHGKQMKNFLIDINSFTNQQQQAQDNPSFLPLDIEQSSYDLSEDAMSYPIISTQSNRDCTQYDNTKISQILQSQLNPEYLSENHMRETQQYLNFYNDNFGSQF
Outline: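 Full-length yeast transcription factors or their DNA-binding domains, GST-tagged and expressed with PURExpress, were applied at about 100-200 nM to universal all-10-mer Agilent arrays. These arrays had been made double-stranded by primer extension on fresh or once-stripped slides. Detection used fluorescent anti-GST, normalisation used masliner, and E-scores for ungapped eight-base words pooled with reverse complements came from the Universal PBM Analysis Suite.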

Row | Sequence | PBM E-score
1 | ACAGGACG | -0.0475
2 | GTAAGGAC | -0.0213
3 | AAGAGCTT | -0.149
4 | GTAACGGA | -0.00869
5 | AGGTCTGC | -0.141
6 | AACGTATC | -0.109
7 | CCGGTACC | -0.258
8 | ATAGAAAC | 0.252
9 | AACTGGAG | -0.133
10 | CCTCCGTC | -0.179
11 | GAAGTGTA | -0.125
12 | AGTAGACG | 0.0756
13 | ACGCTATC | -0.0876
14 | AATACTAC | 0.149
15 | TATGACCA | -0.00763
16 | CGTGTAAG | 0.155
17 | CCCAGGAC | -0.259
18 | GATTCCAA | 0.0725
19 | ATACTATC | 0.0298
20 | GCGTGCCA | 0.206
21 | GAATCATC | 0.0551
22 | CATCTGAA | 0.0869
23 | AGTCAGGC | 0.0383
24 | GCAAGAGA | -0.105
25 | ACCGATTC | -0.207

Row | Sequence | PBM E-score
26 | GCTCGTAC | -0.0319
27 | GGCGGTTA | 0.0532
28 | TCGAACCA | 0.053
29 | CGTCGTCA | -0.0737
30 | ATCCGAAT | 0.156
31 | CTGTGATA | -0.0831
32 | AAGGATCT | -0.101
33 | CCGGAACG | 0.0376
34 | AGCAGGAA | -0.0917
35 | ATAGACTG | -0.0266
36 | CGAAACTC | -0.188
37 | TGTATTAA | 0.118
38 | ACGACCAG | -0.0555
39 | AATACATG | -0.0569
40 | CGATATTC | -0.0542
41 | AGGCTGGG | -0.261
42 | ACCTCTAA | -0.102
43 | CTATCAGA | -0.171
44 | AAACCCCA | -0.188
45 | ACGCGCGC | 0.289
46 | AGCATTAA | -0.0764
47 | CTGTGGTC | -0.134
48 | ATCCGCAG | 0.152
49 | CGCTATAG | -0.178
50 | GCACGTAA | -0.0547

Row | Sequence | PBM E-score
51 | ACATAATG | 0.0685
52 | ATAATTAC | 0.13
53 | ACGATAAT | -0.00117
54 | GTCTTCCA | -0.237
55 | GTCTTCAC | -0.00987
56 | CTATCAAG | -0.0607
57 | GGGGCCTA | -0.433
58 | ACAACTAC | -0.0492
59 | GTAGTAAA | 0.0794
60 | ACAGGAGG | -0.146
61 | GCGACGGA | 0.116
62 | ATAGAGCC | 0.304
63 | AATGGAGG | -0.246
64 | AGATATAC | -0.0856
65 | CTGCGAAC | -0.114
66 | GTTAGGTA | 0.0914
67 | ATATCGTA | 0.0908
68 | AAGGACAG | -0.0695
69 | CCATGCCG | 0.336
70 | ATATTAGA | 0.158
71 | GTGTTAAA | 0.102
72 | AAAGACTC | -0.179
73 | CCAAGGTA | -0.15
74 | GGCAGGTA | -0.0782
75 | ATGTCCGG | -0.00537

Row | Sequence | PBM E-score
76 | AGAAACGC | 0.0995
77 | AAGGATAA | 0.00348
78 | ACCGGCTA | -0.0689
79 | GCTTGACC | -0.173
80 | GGAAGCGA | -0.042
81 | AAAGGAGA | -0.323
82 | CCACGTCA | -0.0175
83 | GATCGTGA | -0.0394
84 | AGATATGA | 0.0634
85 | CAGATACG | 0.176
86 | AAACGCCT | 0.141
87 | AAAAAGTT | -0.039
88 | GGACATCA | -0.00603
89 | TGAATTCA | 0.225
90 | AGATGTTA | 0.0502
91 | GAAATGTA | 0.108
92 | CGTCTGCA | 0.145
93 | CGAGTGAA | 0.137
94 | CGCTCAGC | 0.134
95 | TGACCGCA | 0.025
96 | CAGAATAC | -0.0754
97 | AAATCTCA | 0.0633
98 | GTCTGAGA | 0.054
99 | CATCTCAA | -0.024
100 | GACTTCCA | -0.354

Row | Sequence | PBM E-score
101 | CTCGAAGA | -0.197
102 | ATCTAGAC | -0.038
103 | CCAATCCG | 0.0938
104 | AGGGTCAC | -0.249
105 | GAGGGTTA | -0.217
106 | TAAATGTA | 0.119
107 | GGAGAGGA | -0.226
108 | AGCAAATC | 0.0661
109 | AATGTAAC | 0.0488
110 | CCCCGCAC | -0.00823
111 | CCATGGGC | 0.0271
112 | CATTCTCG | 0.128
113 | ACGTCATC | -0.252
114 | GCCGACCC | -0.019
115 | ACTGTTGC | 0.00756
116 | GAGTCAAA | -0.103
117 | AGCTAAGA | -0.0288
118 | TAGTCAGA | -0.106
119 | CGCCCATA | 0.06
120 | GCCGTGTA | 0.473
121 | GGTGTGAC | -0.27
122 | CAACACTC | 0.113
123 | CACATAAA | 0.219
124 | ATTGATAC | 0.236
125 | AATTGCAG | 0.0119

Row | Sequence | PBM E-score
126 | CGTATGTA | 0.0821
127 | TACTCACA | -0.0151
128 | ACGGCACG | 0.484
129 | GAGGGTCC | -0.374
130 | AACTCATG | 0.0773
131 | AGTCCGTG | 0.0264
132 | CCTTGACC | -0.182
133 | GGCGAGAA | 0.18
134 | CTGAACTA | -0.12
135 | CGAGCGAA | 0.126
136 | CGTCGTAG | -0.00851
137 | GTCGAGAC | -0.083
138 | TTGCCCAA | -0.0123
139 | CAGAGCCC | -0.0943
140 | CCGTGGGA | 0.047
141 | AAAGCCGA | -0.0141
142 | CCTACCTA | -0.0899
143 | TAGTTAAA | 0.133
144 | GGCGGTCA | -0.0538
145 | CATGATCC | -0.132
146 | GCGCCGAA | 0.389
147 | ACCCAGCC | -0.393
148 | GACGATCC | -0.168
149 | ACGCGGCG | 0.488
150 | ACCTTTCA | -0.165

Row | Sequence | PBM E-score
151 | AAGTGCCC | 0.079
152 | CTATGGGA | -0.237
153 | GAACACGC | 0.0617
154 | CTGCTGAC | 0.0578
155 | CTAATCTA | 0.078
156 | GAACTACC | -0.295
157 | AGAACAGC | 0.0931
158 | ATCATAGC | 0.0208
159 | AAACCATG | 0.0395
160 | TGACGTCA | 0.166
161 | GTCCTAGA | -0.249
162 | AAATCGGG | -0.125
163 | ATATCTAA | 0.0738
164 | CTCGGAGA | 0.0864
165 | TCTTAAGA | -0.0714
166 | CTGATTGC | -0.0235
167 | GATACAGC | -0.0344
168 | GTCAGATA | -0.172
169 | ACGCTCAC | -0.00321
170 | AAGAGCCT | 0.134
171 | ATGCTAAG | -0.0379
172 | AACGTGTG | 0.041
173 | GCCCAACC | -0.0708
174 | CAGACACG | -0.01
175 | ATATTGTC | 0.15

Row | Sequence | PBM E-score
176 | CTCCAATC | -0.0716
177 | AGTTGCAA | -0.0284
178 | AAGACTCA | -0.161
179 | AAACTTGA | 0.0733
180 | AGTAGCAT | 0.00131
181 | ACGCACTC | -0.0094
182 | GATTGGCC | -0.0765
183 | AAACAGTT | 0.0554
184 | CACACAAC | 0.113
185 | ACTGCCGA | 0.163
186 | GCTACAGC | 0.0254
187 | ACTTTTCT | -0.107
188 | ATGCTGCA | -0.165
189 | GCCCCCCA | -0.366
190 | AGAGACCA | -0.186
191 | AACGACTA | 0.0864
192 | CTTAGGTA | -0.127
193 | TCCGGCAA | -0.00549
194 | CGAGGTAA | 0.0437
195 | ACTGAATA | 0.151
196 | AACCCGCT | -0.133
197 | GGTAGATA | -0.0205
198 | CGGTTATC | -0.0601
199 | ATAAACAG | -0.0421
200 | TGTAAGAA | 0.186

Row | Sequence | PBM E-score
201 | CAATCACG | 0.174
202 | AATAATGG | 0.0405
203 | TAACTAGA | 0.169
204 | ACATACGC | 0.0727
205 | GGCGTAAC | 0.00498
206 | AAATACTT | 0.0537
207 | ATGATACA | 0.129
208 | CCGTGCTA | 0.157
209 | ACTCAGCC | -0.17
210 | AATTTCTG | 0.154
211 | GAGCATAA | 0.173
212 | AAATTTAA | 0.177
213 | GTTCTGCA | -0.0148
214 | ATACGTAG | -0.00523
215 | CCCAGTCG | -0.267
216 | AAACGTAC | -0.0101
217 | ATGCTACG | 0.00328
218 | GTATTCAC | 0.113
219 | TCTCGTAA | 0.19

— the supplement of paper PMC3334620
